B1: GRHL3, Q8TE85 (protein)
chain: MSNELDFRSVRLLKNDPVNLQKFSYTSEDEAWKTYLENPLTAATKAMMRVNGDDDSVAALSFLYDYYMGPKEKRILSSSTGGRNDQGKRYYHGMEYETDLTPLESPTHLMKFLTENVSGTPEYPDLLKKNNLMSLEGALPTPGKAAPLPAGPSKLEAGSVDSYLLPTTDMYDNGSLNSLFESIHGVPPTQRWQPDSTFKDDPQESMLFPDILKTSPEPPCPEDYPSLKSDFEYTLGSPKAIHIKSGESPMAYLNKGQFYPVTLRTPAGGKGLALSSNKVKSVVMVVFDNEKVPVEQLRFWKHWHSRQPTAKQRVIDVADCKENFNTVEHIEEVAYNALSFVWNVNEEAKVFIGVNCLSTDFSSQKGVKGVPLNLQIDTYDCGLGTERLVHRAVCQIKIFCDKGAERKMRDDERKQFRRKVKCPDSSNSGVKGCLLSGFRGNETTYLRPETDLETPPVLFIPNVHFSSLQRSGGAAPSAGPSSSNRLPLKRTCSPFTEEFEPLPSKQAKEGDLQRVLLYVRRETEEVFDALMLKTPDLKGLRNAISEKYGFPEENIYKVYKKCKRGETSLLHPRLSRHPPPDCLECSHPVTQVRNMGFGDGFWRQRDLDSNPSPTTVNSLHFTVNSE
B2: CTNNB1, P35222 (protein)
chain: MATQADLMELDMAMEPDRKAAVSHWQQQSYLDSGIHSGATTTAPSLSGKGNPEEEDVDTSQVLYEWEQGFSQSFTQEQVADIDGQYAMTRAQRVRAAMFPETLDEGMQIPSTQFDAAHPTNVQRLAEPSQMLKHAVVNLINYQDDAELATRAIPELTKLLNDEDQVVVNKAAVMVHQLSKKEASRHAIMRSPQMVSAIVRTMQNTNDVETARCTAGTLHNLSHHREGLLAIFKSGGIPALVKMLGSPVDSVLFYAITTLHNLLLHQEGAKMAVRLAGGLQKMVALLNKTNVKFLAITTDCLQILAYGNQESKLIILASGGPQALVNIMRTYTYEKLLWTTSRVLKVLSVCSSNKPAIVEAGGMQALGLHLTDPSQRLVQNCLWTLRNLSDAATKQEGMEGLLGTLVQLLGSDDINVVTCAAGILSNLTCNNYKNKMMVCQVGGIEALVRTVLRAGDREDITEPAICALRHLTSRHQEAEMAQNAVRLHYGLPVVVKLLHPPSHWPLIKATVGLIRNLALCPANHAPLREQGAIPRLVQLLVRAHQDTQRRTSMGGTQQQFVEGVRMEEIVEGCTGALHILARDVHNRIVIRGLNTIPLFVQLLYSPIENIQRVAAGVLCELAQDKEAAEAIEAEGATAPLTELLHSRNEGVATYAAAVLFRMSEDKPQDYKKRLSVELTSSLFRTEPMAWNETADLGLDIGAQGEPLGYRQDDPSYRSFHSGGYGQDALGMDPMMEHEMGGHHPGADYPVDGLPDLGHAQDLMDGLPPGDSNQLAWFDTDL
B3: MITF, O75030 (protein)
chain: MQSESGIVPDFEVGEEFHEEPKTYYELKSQPLKSSSSAEHPGASKPPISSSSMTSRILLRQQLMREQMQEQERREQQQKLQAAQFMQQRVPVSQTPAINVSVPTTLPSATQVPMEVLKVQTHLENPTKYHIQQAQRQQVKQYLSTTLANKHANQVLSLPCPNQPGDHVMPPVPGSSAPNSPMAMLTLNSNCEKEGFYKFEEQNRAESECPGMNTHSRASCMQMDDVIDDIISLESSYNEEILGLMDPALQMANTLPVSGNLIDLYGNQGLPPPGLTISNSCPANLPNIKRELTACIFPTESEARALAKERQKKDNHNLIERRRRFNINDRIKELGTLIPKSNDPDMRWNKGTILKASVDYIRKLQREQQRAKELENRQKKLEHANRHLLLRIQELEMQARAHGLSLIPSTGLCSPDLVNRIIKQEPVLENCSQDLLQHHADLTCTTTLDLTDGTITFNNNLGTGTEANQAYSVPTKMGSKLEDILMDDTLSPVGVTDPLLSSVSPGASKTSSRRSSMSMEETEHTC
B4: ZNF19, P17023 (protein)
chain: MAAMPLKAQYQEMVTFEDVAVHFTKTEWTGLSPAQRALYRSVMLENFGNLTALGYPVPKPALISLLERGDMAWGLEAQDDPPAERTKNVCKDVETNIDSESTLIQGISEERDGMMSHGQLKSVPQRTDFPETRNVEKHQDIPTVKNIQGKVPRIPCARKPFICEECGKSFSYFSYYARHQRIHTGEKPFECSECGKAFNGNSSLIRHQRIHTGERPYQCEECGRAFNDNANLIRHQRIHSGDRPYYCTECGNSFTSSSEFVIHQRIHTGEKPYECNECGKAFVGNSPLLRHQKIHTGEKPYECNECGKSFGRTSHLSQHQRIHTGEKPYSCKVCGQAFNFHTKLTRHQRIHSEEKPFDCVDCGKAFSAQEQLKRHLRIHTQESSYVCDECGKALTSKRNLHQHQRIHTGEKPYECSKYEKAFGTSSQLGHLEHVYSGEKPVLDICRFGLPEFFTPFYW
B5: PCGF6, Q9BYE7 (protein)
chain: MEGVAVVTAGSVGAAKTEGAAALPPPPPVSPPALTPAPAAGEEGPAPLSETGAPGCSGSRPPELEPERSLGRFRGRFEDEDEELEEEEELEEEEEEEEEDMSHFSLRLEGGRQDSEDEEERLINLSELTPYILCSICKGYLIDATTITECLHTFCKSCIVRHFYYSNRCPKCNIVVHQTQPLYNIRLDRQLQDIVYKLVINLEEREKKQMHDFYKERGLEVPKPAVPQPVPSSKGRSKKVLESVFRIPPELDMSLLLEFIGANEGTGHFKPLEKKFVRVSGEATIGHVEKFLRRKMGLDPACQVDIICGDHLLEQYQTLREIRRAIGDAAMQDGLLVLHYGLVVSPLKIT
B6: HEY2, Q9UBP5 (protein)
chain: MKRPCEETTSESDMDETIDVGSENNYSGQSTSSVIRLNSPTTTSQIMARKKRRGIIEKRRRDRINNSLSELRRLVPTAFEKQGSAKLEKAEILQMTVDHLKMLQATGGKGYFDAHALAMDFMSIGFRECLTEVARYLSSVEGLDSSDPLRVRLVSHLSTCATQREAAAMTSSMAHHHHPLHPHHWAAAFHHLPAALLQPNGLHASESTPCRLSTTSEVPPAHGSALLTATFAHADSALRMPSTGSVAPCVPPLSTSLLSLSATVHAAAAAATAAAHSFPLSFAGAFPMLPPNAAAAVAAATAISPPLSVSATSSPQQTSSGTNNKPYRPWGTEVGAF

This is one part of the list. Binding of human transcription factors and regulators to the viral nucleoprotein by AlphaScreen, crude cell-free proteins, amounts not normalised, one pass. Fold of the Venus control; higher = more signal. No active / inactive call. Single-pass screen; sequences are the whole Swiss-Prot entries looked up by name.

This is an account of results in the supplement of paper PMC12423691.

This experiment has as its target nucleoprotein N of Crimean-Congo hemorrhagic fever virus. Nature of the experiment: AlphaScreen luminescence signal relative to Venus negative control (fold); higher = stronger binding to CCHFV N. The method, then: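 AlphaScreen binding of cell-free made, FLAG-GST-tagged human transcription factors and regulators (crude translation products) to biotinylated N protein; signal as fold of the FLAG-GST-Venus control. One pass.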
(In general: Bead proximity is the source of the signal in Alpha formats.)
As for B1, the AlphaScreen luminescence signal stood at 1.95. B2 came in with an AlphaScreen luminescence signal of 1.49.

In turn, B3 came in with an AlphaScreen luminescence signal of 2.05. In the case of B4 it was 1.81. The figure for B5 is 1.16; for B6 it is 1.63.
